Some of the results follow. Sequences were assembled here from the parent chain. Inactive controls read about 0.05.
B1: TEV protease; numbered along this chain (parent)
chain: MGESLFKGPRDYNPISSSICHLTNESDGHTTSLYGIGFGPFIITNKHLFRRNNGTLVVQSLHGVFKVKDTTTLQQHLVDGRDMIIIRMPKDFPPFPQKLKFREPQREERICLVTTNFQTKSMSSMVSDTSCTFPSGDGIFWKHWIQTKDGQCGSPLVSTRDGFIVGIHSASNFTNTNNYFTSVPKNFMELLTNQEAQQWVSGWRLNADSVLWGGHKVFMVKPEEPFQPVKEATQL

Variants of: B1
Experiment: raw area under fraction-flipped curve 0-4 h after induction (AUC4h, not background-subtracted), DNA-recorder readout of cleavage of the substrate (dimensionless); higher = more cleavage of the substrate by the protease variant
Details: temperature: 34 °C; time window: 0-4 h after rhamnose induction
Protocol: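 In vivo DNA recorder in E. coli TOP10(DE3) ΔrhaA at 34 °C. Each TEVp single-site mutant (parent TEVp 0) is paired with a single-site variant of the 7-mer TEVs (canonical ENLYFQ|S). The substrate sits between flexible linkers in a Bxb1-sfGFP-TEVs-SsrA fusion, so cleavage stabilises Bxb1 and speeds flipping of a recombination array, read by NGS. The value is the raw area under the fraction-flipped curve over 0-4 h after rhamnose induction (AUC4h), with ≥20 reads per time point. It is not background-subtracted; inactive controls average about 0.047.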
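Also: Bxb1 expression induced with 0.2% (w/v) L-rhamnose at OD600 near 0.5, cultures sampled hourly, flipped fraction per protease–substrate barcode pair counted by paired-end Illumina sequencing.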

Row | Variant | area with substrate ECLYFQS | area with substrate EHLYFQS | area with substrate EILYFQS | area with substrate EMLYFQS | area with substrate EQLYFQS | area with substrate ERLYFQS | area with substrate ESLYFQS | area with substrate ETLYFQS | area with substrate EVLYFQS | area with substrate EYLYFQS | area with substrate EDLYFQS | area with substrate EELYFQS | area with substrate EKLYFQS | area with substrate ELLYFQS | area with substrate EFLYFQS | area with substrate EGLYFQS | area with substrate EWLYFQS | area with substrate EPLYFQS
1 | W141R | 0.0603 | 0.0758 | 0.0571 | 0.0356 | 0.0522 | 0.0618 | 0.0688 | 0.0513 | 0.0535 | 0.0864 | – | – | – | – | – | – | – | –
2 | K142D | 0.0738 | 0.0647 | 0.0681 | 0.0625 | 0.0836 | 0.102 | 0.0742 | – | 0.0656 | 0.0693 | 0.098 | 0.0604 | 0.0683 | 0.0766 | – | – | – | –
3 | K142R | 0.0667 | 0.0872 | – | 0.0758 | – | – | 0.079 | – | – | 0.0836 | – | – | 0.0767 | 0.0768 | 0.115 | 0.0788 | 0.0761 | –
4 | H143D | 0.0606 | 0.0584 | 0.0502 | 0.0479 | 0.0671 | 0.0477 | 0.0563 | – | 0.0613 | 0.0839 | – | – | 0.0641 | 0.0587 | – | – | 0.0604 | –
5 | I145Q | 0.0705 | – | 0.0673 | 0.0761 | – | 0.096 | – | – | – | 0.068 | – | – | 0.072 | 0.0695 | 0.0703 | 0.0714 | – | 0.0951
6 | Q146I | 0.104 | 0.111 | 0.0926 | – | 0.143 | – | 0.126 | – | 0.11 | – | 0.16 | 0.141 | 0.113 | – | – | 0.1 | – | 0.122
7 | T147G | 0.0709 | 0.0835 | 0.0574 | 0.0762 | 0.0688 | 0.0634 | 0.076 | 0.073 | 0.0781 | 0.0632 | – | 0.0756 | 0.0655 | – | – | – | – | –
8 | T147I | 0.0791 | – | 0.0868 | 0.104 | 0.0924 | 0.0709 | 0.0726 | 0.0947 | 0.0625 | 0.0892 | – | 0.0702 | 0.0784 | – | 0.0792 | – | 0.0716 | 0.0917
9 | T147P | 0.0643 | – | 0.0485 | – | 0.08 | 0.0688 | 0.0765 | – | 0.0647 | 0.0839 | 0.0802 | – | 0.0761 | 0.0732 | 0.0076 | 0.0535 | 0.0658 | –
10 | T147W | 0.0523 | 0.0549 | 0.051 | 0.0662 | 0.0603 | 0.066 | 0.0554 | 0.0575 | 0.0487 | 0.0655 | 0.0935 | 0.0586 | 0.0629 | 0.0523 | – | – | 0.0806 | –
11 | K148W | 0.0744 | 0.125 | 0.0662 | 0.093 | 0.101 | – | 0.0897 | – | 0.0767 | 0.0656 | 0.0931 | – | – | 0.0729 | – | – | 0.0856 | –
12 | D149V | 0.0913 | – | 0.0898 | – | – | – | 0.0844 | – | – | 0.0989 | 0.113 | – | 0.105 | – | – | – | – | –
13 | G150P | 0.0576 | 0.0606 | 0.0433 | 0.0557 | 0.0661 | 0.0693 | 0.059 | 0.0882 | 0.0536 | 0.07 | – | 0.0567 | 0.0562 | 0.0596 | 0.0531 | 0.0606 | 0.0542 | 0.0504
14 | Q151G | 0.149 | – | 0.0892 | 0.0659 | 0.0694 | 0.0897 | 0.0967 | – | 0.0872 | – | 0.16 | 0.112 | – | – | 0.107 | 0.071 | 0.107 | 0.132
15 | G153P | 0.0454 | – | 0.0358 | 0.0456 | 0.0392 | 0.051 | – | – | 0.0423 | – | – | – | – | – | 0.0392 | – | – | –
16 | S154C | 0.11 | – | 0.0845 | 0.139 | 0.111 | 0.0885 | 0.139 | 0.124 | 0.0982 | 0.083 | 0.134 | 0.0833 | 0.101 | 0.082 | 0.102 | 0.11 | 0.118 | 0.112
17 | S154L | 0.121 | 0.173 | – | 0.159 | 0.152 | – | 0.17 | – | 0.122 | – | 0.186 | 0.199 | – | – | – | – | 0.119 | 0.118
18 | S154R | 0.0707 | 0.0845 | 0.0732 | – | 0.0954 | – | 0.0881 | – | 0.0748 | 0.0844 | 0.0964 | 0.0938 | 0.0865 | 0.0804 | 0.0809 | 0.0705 | – | 0.0952
19 | P155H | 0.0449 | – | 0.054 | 0.0354 | 0.068 | 0.0692 | 0.0542 | – | 0.0522 | 0.0373 | 0.0649 | – | 0.0485 | 0.0525 | – | 0.0421 | 0.0464 | –
20 | P155N | 0.0513 | 0.0367 | 0.0426 | 0.035 | 0.0523 | 0.0399 | 0.0454 | – | 0.0497 | 0.0559 | – | 0.0544 | 0.0475 | 0.0589 | 0.0486 | 0.0569 | 0.0486 | –
21 | L156C | 0.0933 | 0.102 | 0.0911 | 0.124 | 0.115 | 0.112 | 0.113 | 0.0983 | 0.119 | – | 0.142 | – | 0.0991 | 0.121 | – | 0.102 | – | 0.1
22 | L156G | 0.053 | 0.0795 | – | 0.0424 | 0.0434 | 0.0599 | 0.059 | – | – | 0.0603 | 0.0542 | 0.0559 | 0.0577 | – | – | – | – | 0.0527
23 | L156S | 0.0421 | 0.0761 | 0.063 | 0.0708 | 0.0798 | 0.0775 | 0.0724 | – | – | 0.0836 | – | 0.0784 | 0.0565 | 0.0691 | – | 0.0675 | – | –
24 | S158A | 0.108 | 0.119 | 0.0882 | 0.106 | 0.0881 | 0.0772 | 0.11 | – | 0.0844 | – | 0.18 | – | – | – | 0.107 | 0.124 | 0.0527 | –
25 | S158D | 0.0785 | 0.0843 | – | 0.0928 | 0.112 | 0.0836 | 0.0748 | – | 0.0794 | – | – | 0.0924 | – | – | 0.0839 | 0.0727 | – | –
26 | S158I | 0.0345 | – | 0.0492 | – | 0.0498 | – | 0.0839 | – | – | – | – | – | – | 0.0409 | – | – | 0.0481 | 0.0094
27 | R160P | 0.0457 | 0.0891 | 0.0607 | 0.0771 | 0.1 | 0.0812 | 0.0951 | 0.0883 | 0.109 | 0.0939 | – | 0.0804 | – | 0.0431 | – | – | – | –
28 | R160S | 0.0922 | – | 0.122 | – | 0.137 | – | – | – | 0.0868 | – | – | – | – | – | – | – | – | –
29 | D161S | 0.0848 | 0.0832 | 0.0768 | 0.0899 | 0.0844 | – | – | 0.0816 | 0.0853 | – | – | 0.104 | 0.062 | 0.0795 | – | – | 0.0801 | 0.0489
